“And” between values parts separate entries of the source, which are not always exact repeats. Identical values can stand only once. The shares of active, inactive and inconclusive entries below differ from those in the screen. For part of these data: A potency beside an inconclusive call is a rough fit, not a confirmed value. The source made the active and inactive calls. Unless noted, calls follow the shape of the full dose curve.
What was measured:
[1] = molecular target: Peroxisome proliferator-activated receptor delta (Homo sapiens) (UniProt Q03181); experiment: qHTS assay to identify small molecule antagonists of the peroxisome proliferator-activated receptor delta (PPARd) signaling pathway (AID 743215; active = well fitted inhibition curve with a large enough effect in the signal ratio in the repeat runs, not every such curve was filed as active; inconclusive = weak or mixed curves, or effect the other way; inactive = no such curve, though single readings can be large or run the other way; the % refers to the signal ratio;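 also: cells stimulated with agonist L165041 at 300 nM final during compound exposure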); settings: HEK293H PPARd-UAS-bla, beta-lactamase FRET ratio, antagonist, 17 h; ratio activity, negative = inhibition: at 62 µM (top of the series) unless noted
Outline: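 Fluorescence from cleaved LiveBLAzer B/G FRET substrate (2 h, room temperature) reports PPARd-driven beta-lactamase in HEK293H UAS-bla cells. Cells had been treated 17 h at 37 C with compound plus 300 nM final L165041.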

[2] = molecular target: Vitamin D3 receptor (Homo sapiens) (UniProt P11473); experiment: qHTS assay to identify small molecule antagonists of the vitamin D receptor (VDR) signaling pathway (AID 743223; active = well fitted inhibition curve with a large enough effect in the signal ratio in the repeat runs, not every such curve was filed as active; inconclusive = weak or mixed curves, or effect the other way; inactive = no such curve, though single readings can be large or run the other way; the % refers to the signal ratio); settings: VDR-UAS-bla HEK293T, beta-lactamase FRET ratio, 16 h
Outline: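 Quantitative HTS in VDR-bla reporter cells stimulated with 1alpha,25-dihydroxyvitamin D3, 3 nM final. Compound exposure 16 h, 37C, 5% CO2. Read-out: beta-lactamase FRET substrate fluorescence, 2 h RT.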

[3] = qHTS assay to identify small molecule antagonists of the vitamin D receptor (VDR) signaling pathway - cell viability counter screen (AID 743225; active = well fitted curve in the direction sought with a large enough effect in the repeat runs; inconclusive = weak or mixed curves; inactive = no such curve, though single readings can be large; an effect the other way counts as inactive or inconclusive; also: nearly all actives have a fitted effect of over 50% in size); settings: VDR-bla HEK293T viability, CellTiter-Glo luminescence, 16 h; viability change, negative = cytotoxic: at 61 µM (top of the series) unless noted
Outline: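 Same-well multiplex: following 16 h treatment of HEK 293T cells carrying a UAS-driven beta-lactamase reporter with compound and agonist (3 nM final), and a 2 h FRET substrate step, CellTiter-Glo was added and luminescence read after 30 min.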

[4] = qHTS assay to identify small molecule agonists of the endoplasmic reticulum stress response signaling pathway (AID 1159516; active = well fitted activation curve with a large enough effect in the signal ratio in the repeat runs, not every such curve was filed as active; inconclusive = weak or mixed curves, or effect the other way; the % refers to the signal ratio; also: potency is read from the fitted curve at half-maximal effect); settings: ESRE-bla HeLa, ER stress beta-lactamase reporter, 5 h; activation: at 61 µM (top of the series) unless noted
Outline: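 Beta-lactamase expression from the ER stress response element in HeLa reporter cells is quantified with the LiveBLAzer B/G FRET substrate, read at 405 nm excitation after 2 hr at room temperature, following 5 hr compound treatment at 37 C.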

[5] = qHTS assay to identify small molecule agonists of the AP-1 signaling pathway (AID 1159526); settings: ME-180 (cervical carcinoma) AP-1-bla reporter, beta-lactamase FRET ratio, 5 h; activation: at 76.8 µM (top of the series) unless noted; also: potency is read from the fitted curve at half-maximal effect
[6] = qHTS assay to identify small molecule agonists of the RXR signaling pathway - cell viability counter screen (AID 1159529; active = well fitted curve in the direction sought with a large enough effect in the repeat runs; inconclusive = weak or mixed curves; inactive = no such curve, though single readings can be large; an effect the other way counts as inactive or inconclusive; also: nearly all actives have a fitted effect of over 50% in size)
Outline: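 Counter screen: CellTiter-Glo luminescence. Cells: RXR-alpha-UAS-bla HEK 293T. Medium: 2% charcoal-stripped FBS. Treatment: 16 h, 37 C. Reagent incubation: 30 min, RT.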

[7] = molecular target: Retinoic acid receptor RXR-alpha (Homo sapiens) (UniProt P19793); experiment: qHTS assay to identify small molecule agonists of the RXR signaling pathway (AID 1159527); settings: HEK293T RXRa-UAS-bla, beta-lactamase ratio, 16 h; activation: at 76.8 µM (top of the series) unless noted; also: nearly all actives have a fitted effect of over 35% in size
Outline: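 Compounds in DMSO were added to RXR-alpha-UAS-bla HEK 293T cells kept in 2% charcoal-stripped serum, and incubated 16 hr at 37 C with 5% CO2. Reporter signal came from a 2 hr B/G FRET substrate step.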

[8] = molecular target: Peroxisome proliferator-activated receptor delta (Homo sapiens) (UniProt Q03181); experiment: qHTS assay to identify small molecule agonists of the peroxisome proliferator-activated receptor delta (PPARd) signaling pathway (AID 743212); settings: HEK293H PPARd-UAS-bla, beta-lactamase FRET ratio, 17 h; activation: at 62.6 µM (top of the series) unless noted;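 also: HEK293H cells with PPARd UAS beta-lactamase reporter GeneBLAzer system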
Outline: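 Beta-lactamase reporter readout: a ratiometric FRET signal from the LiveBLAzer substrate after 2 h at room temperature. Compound exposure at 37 °C in PPARδ-bla HEK293H cells driven by an upstream activator sequence.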

[9] = qHTS assay to identify small molecule antagonists of the farnesoid-X-receptor (FXR) signaling pathway - cell viability counter screen (AID 743221; active = well fitted cell-killing curve with a large enough effect in the repeat runs, not every such curve was filed as active; inconclusive = weak or mixed curves, or effect the other way; inactive = no such curve, though single readings can be large or run the other way; also: nearly all actives have a fitted effect of over 50% in size); settings: FXR-bla HEK293T viability, CellTiter-Glo luminescence, 16 h; activity change, negative = cytotoxicity: at 62.6 µM (top of the series)
Outline: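 Cytotoxicity is taken from ATP luminescence (CellTiter-Glo, 30 min, room temperature) in FXR-bla HEK 293T cells previously incubated 16 h at 37 C with compound and chenodeoxycholic acid at 50 uM final.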

[10] = qHTS assay to identify small molecule agonists of the vitamin D receptor (VDR) signaling pathway - cell viability counter screen (AID 743224; active = well fitted curve in the direction sought with a large enough effect in the repeat runs; inconclusive = weak or mixed curves; inactive = no such curve, though single readings can be large; an effect the other way counts as inactive or inconclusive; also: nearly all actives have a fitted effect of over 50% in size); settings: VDR-bla HEK293T viability, CellTiter-Glo luminescence, 16 h; activity change, negative = cytotoxicity: at 62.6 µM (top of the series)
Outline: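 In parallel with the bla FRET readout, cytotoxicity toward VDR-bla cells after 16 h compound exposure was assessed by CellTiter-Glo, with luminescence recorded after a 30 min room-temperature incubation.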

[11] = qHTS assay to identify small molecule antagonists of the retinoid acid receptor (RAR) signaling pathway - cell viability counter screen (AID 1159551; active = well fitted curve in the direction sought with a large enough effect in the repeat runs; inconclusive = weak or mixed curves; inactive = no such curve, though single readings can be large; an effect the other way counts as inactive or inconclusive; also: nearly all actives have a fitted effect of over 35% in size)
Outline: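 Viability of C3RL4 cells is quantified from ATP by luminescence after 6 h treatment at 37 C with compounds and 1 uM retinol.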

[12] = qHTS assay to identify small molecule antagonists of the peroxisome proliferator-activated receptor delta (PPARd) signaling pathway - cell viability counter screen (AID 743213; active = well fitted curve in the direction sought with a large enough effect in the repeat runs; inconclusive = weak or mixed curves; inactive = no such curve, though single readings can be large; an effect the other way counts as inactive or inconclusive; also: nearly all actives have a fitted effect of over 50% in size); settings: PPARd-bla HEK293H viability, CellTiter-Glo luminescence, 17 h; viability change, negative = cytotoxic: at 62 µM (top of the series) unless noted
Outline: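 In this counter screen, HEK293H cells carrying a UAS-beta-lactamase reporter are co-treated with test compounds and 300 nM L165041 (final) for 17 h at 37 C; cell viability is quantified by CellTiter-Glo luminescence.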

[13] = molecular target: Bile acid receptor (Homo sapiens) (UniProt Q96RI1); experiment: qHTS assay to identify small molecule antagonists of the farnesoid-X-receptor (FXR) signaling pathway (AID 743217; active = well fitted inhibition curve with a large enough effect in the signal ratio in the repeat runs, not every such curve was filed as active; inconclusive = weak or mixed curves, or effect the other way; inactive = no such curve, though single readings can be large or run the other way; the % refers to the signal ratio); settings: HEK293T FXR-UAS-bla, beta-lactamase ratio, CDCA-stimulated, 16 h; activity change, negative = inhibition: at 62.6 µM (top of the series) unless noted
Outline: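 FRET fluorescence after 2 h room-temperature LiveBLAzer loading gives the readout. Prior step: FXR-bla HEK 293T cells, seeded and incubated 5 h, received test compounds plus 50 uM final CDCA for 16 h at 37 °C.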

[14] = activity change, negative = inhibition: at 61 µM (top of the series) unless noted
% is scaled to controls: 0 for no effect and ±100 for the full control effect; tags tell the direction and shape of the fitted curve or compound fluorescence and quenching.

Chain of UniProt P11473 (P11473 whole entry, looked up): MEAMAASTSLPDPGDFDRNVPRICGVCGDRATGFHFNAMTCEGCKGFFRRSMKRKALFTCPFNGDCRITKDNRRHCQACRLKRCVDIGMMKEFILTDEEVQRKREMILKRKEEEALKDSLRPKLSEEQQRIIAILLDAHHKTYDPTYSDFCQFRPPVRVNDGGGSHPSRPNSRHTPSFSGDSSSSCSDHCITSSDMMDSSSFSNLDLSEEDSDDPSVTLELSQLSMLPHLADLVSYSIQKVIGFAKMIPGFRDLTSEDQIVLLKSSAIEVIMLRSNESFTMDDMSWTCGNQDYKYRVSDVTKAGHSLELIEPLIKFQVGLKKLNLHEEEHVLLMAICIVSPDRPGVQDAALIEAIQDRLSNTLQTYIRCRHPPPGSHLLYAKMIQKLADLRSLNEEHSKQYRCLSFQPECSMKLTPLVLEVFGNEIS
Chain of UniProt P19793 (P19793 whole entry, looked up): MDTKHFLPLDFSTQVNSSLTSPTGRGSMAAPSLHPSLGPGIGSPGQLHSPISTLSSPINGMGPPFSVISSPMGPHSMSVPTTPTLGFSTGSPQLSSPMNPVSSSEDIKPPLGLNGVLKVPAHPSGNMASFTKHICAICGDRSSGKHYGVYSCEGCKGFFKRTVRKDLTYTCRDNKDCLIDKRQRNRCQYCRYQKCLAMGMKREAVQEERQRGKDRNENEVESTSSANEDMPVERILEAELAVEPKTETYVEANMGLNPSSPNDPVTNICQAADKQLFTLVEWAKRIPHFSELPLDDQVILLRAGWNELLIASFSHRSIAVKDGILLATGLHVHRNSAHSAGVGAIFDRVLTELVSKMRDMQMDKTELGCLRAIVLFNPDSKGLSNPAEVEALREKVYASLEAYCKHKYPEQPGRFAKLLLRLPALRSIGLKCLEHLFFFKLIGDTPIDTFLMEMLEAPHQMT
Chain of UniProt Q03181 (Q03181 whole entry, looked up): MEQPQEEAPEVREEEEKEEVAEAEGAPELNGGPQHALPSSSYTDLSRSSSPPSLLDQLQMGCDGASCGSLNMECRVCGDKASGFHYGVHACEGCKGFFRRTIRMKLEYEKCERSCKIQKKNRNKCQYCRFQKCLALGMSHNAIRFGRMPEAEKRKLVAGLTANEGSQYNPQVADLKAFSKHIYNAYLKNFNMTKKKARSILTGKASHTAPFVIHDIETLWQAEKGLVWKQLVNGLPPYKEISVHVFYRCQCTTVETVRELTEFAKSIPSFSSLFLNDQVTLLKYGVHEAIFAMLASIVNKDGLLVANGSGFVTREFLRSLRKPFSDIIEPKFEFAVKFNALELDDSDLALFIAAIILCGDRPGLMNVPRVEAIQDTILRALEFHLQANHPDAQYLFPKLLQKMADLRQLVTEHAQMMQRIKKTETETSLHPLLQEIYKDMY
Chain of UniProt Q96RI1 (Q96RI1 whole entry, looked up): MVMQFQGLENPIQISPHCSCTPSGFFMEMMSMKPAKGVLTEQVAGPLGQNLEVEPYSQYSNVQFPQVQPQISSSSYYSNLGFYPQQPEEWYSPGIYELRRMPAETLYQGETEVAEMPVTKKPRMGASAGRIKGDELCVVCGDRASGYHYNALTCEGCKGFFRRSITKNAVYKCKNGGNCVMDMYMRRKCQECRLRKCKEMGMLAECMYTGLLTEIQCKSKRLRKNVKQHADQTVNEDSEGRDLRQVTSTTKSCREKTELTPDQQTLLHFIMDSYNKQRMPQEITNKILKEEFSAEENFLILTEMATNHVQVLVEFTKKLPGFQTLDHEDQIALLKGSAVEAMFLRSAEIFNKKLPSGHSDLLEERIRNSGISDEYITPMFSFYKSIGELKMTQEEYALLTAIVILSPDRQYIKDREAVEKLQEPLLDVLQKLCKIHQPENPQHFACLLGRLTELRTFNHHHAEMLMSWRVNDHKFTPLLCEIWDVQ

**Q.** Which Potency [1] does the source give for `O=C(O)[C@@H]1[C@H]2C[C@H]3c4[nH]c5ccccc5c4CCN3C[C@@H]2CC[C@@H]1O` here?
**A.** inactive

**Q.** What about the activity change, negative = inhibition [2, 14] of the same compound?
**A.** inconclusive: 2.08%

**Q.** And the Potency [3]?
**A.** inactive

**Q.** What about the Potency [4] of the same compound?
**A.** inactive

**Q.** And the Potency [5]?
**A.** inconclusive: 0.0535 µM [rising, partial curve, poor fit]

**Q.** And the Potency [6]?
**A.** inactive

**Q.** What does the source list for `NC(Cc1ccc(F)cc1)C(=O)O` (stereo not drawn)?
**A.** activity change, negative = inhibition [2, 14]: inactive: 0.285% [at 6.95 µM]; activation [4]: inactive: -3.08% [at 6.95 µM]; Potency [5]: inconclusive: 2.12 µM [activator, partial curve]; activation [7]: inactive: 12.3% [at 6.98 µM]

**Q.** With `CN(C)CCOC(c1ccc(Cl)cc1)c1ccccn1` (stereo not drawn) as the compound, how does the Potency [8] read?
**A.** inactive

**Q.** And the Potency [9]?
**A.** inactive

**Q.** And the activity change, negative = inhibition [2, 14]?
**A.** inconclusive: 2.09%

**Q.** What about the Potency [4] of the same compound?
**A.** inactive

**Q.** What about the Potency [5] of the same compound?
**A.** inactive

**Q.** Which Potency [9] does the source give for `CCCCN1CCCC[C@H]1C(=O)Nc1c(C)cccc1C` here?
**A.** inactive

**Q.** And the Potency [4]?
**A.** inconclusive: 0.0134 µM [rising, full curve, poor fit]

**Q.** What about the activation [5] of the same compound?
**A.** inconclusive: 2.05% [at 35.3 µM]

**Q.** And the Potency [7]?
**A.** inactive

**Q.** Which Potency [10] does the source give for `OC1CCC(C2CCCCC2)CC1` (stereo not drawn) here?
**A.** inactive

**Q.** And the Potency [3]?
**A.** inactive

**Q.** What about the Potency [4] of the same compound?
**A.** inconclusive: 12.3 µM [falling, partial curve, poor fit]

**Q.** What about the Potency [5] of the same compound?
**A.** inactive

**Q.** And the Potency [11]?
**A.** inactive

**Q.** What does the source list for `CN1C(C(=O)Nc2ccccn2)=C(O)c2sccc2S1(=O)=O`?
**A.** Potency [12]: inactive; Potency [4]: inconclusive: 30.1 µM [falling, single point]; Potency [5]: inconclusive: 21.3 µM [activator, partial curve, poor fit]

**Q.** Which activity change, negative = inhibition [13] does the source give for `CCCCOC(=O)c1ccc(O)cc1` here?
**A.** inconclusive: -24% [at 81.1 µM]

**Q.** And the activity change, negative = inhibition [2, 14]?
**A.** inconclusive: -31.7% [at 78.8 µM]

**Q.** What about the activity change, negative = inhibition ([2]; at 61 µM (top of the series)) of the same compound?
**A.** inactive: -17.8% and inactive: -17%

**Q.** And the Potency [4]?
**A.** inconclusive: 62.4 µM

**Q.** What about the Potency [5] of the same compound?
**A.** inconclusive: 62.4 µM [falling, partial curve, poor fit]

**Q.** What about the activation [7] of the same compound?
**A.** inconclusive: -6.62%

From PubChem BioAssay (Tox21)
